In the experiment the test system is NCI-H322M lung. Nature of the experiment: NCI tumour cell line growth inhibition, 48 h.

“And” between values parts separate entries of the source, which are not always exact repeats. Identical values can stand only once.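 Grown in 96-well plates, cells were treated for 48 hours with each compound at five concentrations. Insufficient inhibition: endpoint recorded as highest concentration tested. Here, GI50 denotes the concentration required for 50% inhibition of growth. TGI is the concentration that stops growth completely.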

For the molecule `CCOc1ccccc1N=C(NC(=O)CC)SC`, the GI50 was over 100 µM and the TGI is over 100 µM.

With `CC(=O)OC1C(O)COC(Oc2c(C)c3c4c(c2O)[C@@H](C)CC[C@@H]4[C@@H](C)C[C@H]3C=C(C)C)C1O` (some centres not stated), the GI50 was 12.3 µM and the TGI is 25.8 µM.

As to `COC(=O)C1=C(C(=O)OC)C2(/N=C(\Nc3ccccc3)c3ccccc3)N(c3ccc(OC)cc3)CC(c3ccccc3)N2O1` (configuration not stated), the TGI is over 100 µM.

Regarding `CCCCCn1ncc(-c2c(O)c(O)cc3c(O)c(-c4c(C)cc5c(-c6cnn(CCCCC)n6)c(O)c(O)cc5c4O)c(C)cc23)n1`, the GI50 is 0.914 µM and the TGI was determined as 6.19 µM.

Consider `COc1ccccc1NC(=O)N/C(N)=N/c1nc2ccccc2s1`, for which the GI50 is 0.257 µM and the TGI is over 100 µM.

In turn, `O=C(N/N=C/c1cc(Br)cc(Br)c1[O-])c1ccccc1O.O=C(N/N=C/c1cc(Br)cc(Br)c1[O-])c1ccccc1O.[Cl-].[Fe+3]` displayed a TGI of 17.6 µM.

For `Nc1nc(Cl)cc(NCCCCO)n1`, the TGI is over 100 µM.

For the molecule `Cc1nc(SCC(=O)Nc2ccccc2)c2sc(=S)n(-c3ccccc3)c2n1`, the TGI was over 10 µM.

In the case of `O=c1c2ccccc2c(C=NCCNCCO)c2oc3ccccc3n12`, the GI50 is 2.87 µM and the TGI stood at 8.92 µM.

For `O=c1cc2oc3ccc4ccccc4c3cc-2c(=O)[nH]1`, the TGI is 28.5 µM.

In the case of `CCC1(c2ccncc2)CCC(=O)NC1=O` (configuration not stated), the TGI is over 100 µM.

For `COC(=O)/C=C\C1C(C(=O)OC)C2(C(=O)OC)CCC1(C(=O)OC)N2` (configuration not stated), the TGI was 30.4 µM.

Turning to `CC1(Br)C(=O)NC(=O)N([C@H]2C[C@H](O)[C@@H](CO)O2)C1N=[N+]=[N-]` (some centres not stated), the TGI was over 100 µM.

`CC(=O)NC1C(OCc2ccccc2)OC(CO)C(O)C1OCC(=O)NC(C)C(=O)NC(CCC(=O)OCCNC(=O)c1cccc2cc3ccccc3nc12)C(N)=O` (configuration not stated): the TGI came to 54.1 µM.

For `Nc1nc(SCCC/C=C/B(O)O)nc2c1ncn2C1OC(CO)C(O)C1O` (configuration not stated), the TGI was over 243 µM.

Regarding `Clc1ccc(OCc2nnc(CCCCCCCCc3nnc(COc4ccc(Cl)cc4)o3)o2)cc1`, the TGI is over 100 µM.

Take `CC(C)c1cccc2sc(NC(=O)C(=O)CC(=O)c3ccc(F)cc3)nc12`: the TGI was over 100 µM.

Consider `Cc1ccc2nc(NC(=O)CSC(=S)N3CCN(Cc4ccccc4)CC3)sc2c1`, for which the GI50 was over 100 µM and the TGI is over 100 µM.

The molecule `COc1cc(C(C)c2cc3c(cc2OCCOCCOc2cc4c(cc2C(C)c2cc(OC)c(OC)c(OC)c2)OCO4)OCO3)cc(OC)c1OC` (configuration not stated) came in with a TGI of over 10 µM.

Molecule `O=c1[nH]ncc2[nH]c3c(c12)CCCc1ccccc1-3` had a TGI of over 100 µM.

On to `Cn1cc(C=C(C#N)C#N)c(=O)n(C)c1=O`, for which the TGI is over 100 µM.

In the case of `COc1cc2c(c(OC)c1OC)C(=O)c1c-2n(CCCN)c(=O)c2cc([N+](=O)[O-])ccc12`, the GI50 was 0.73 µM and the TGI is 3.12 µM.

Regarding `c1ccc2c(c1)[Se]c1ccccc1[Se]2`, the TGI is over 100 µM.

Take `Cc1ccc(NCCN(C)CC(C)O)c2c(=O)c3ccc(Cl)cc3sc12` (configuration not stated): the GI50 is 3 µM and the TGI was over 100 µM.

`c1ccc(SCCP(CCP(c2ccccc2)c2ccccc2)c2ccccc2)cc1` (configuration not stated) returned a TGI of over 100 µM.

Take `CCC(=O)[O-].CCC(=O)[O-].N.N.N.N.[Co+3].[O-][Cl+3]([O-])([O-])[O-]`: the GI50 was over 100 µM and the TGI is over 100 µM.

As for `Fc1ccc(C(OCCN2CC3CC2CN3CCCc2ccccc2)c2ccc(F)cc2)cc1` (configuration not stated), the TGI was 26 µM.

Regarding `C[C@]1(O)CC(=O)[C@]2(O)C3=C(C=C[C@]2(O)C1)C(=O)c1c(O)cccc1C3=O`, the GI50 was 14 µM and the TGI worked out at 27.2 µM.

On to `CCCCn1c(=O)c(/C=C/C(=O)/C=C/c2ccc(O)c(OC)c2)cc2ccc(Cl)cc21`, for which the GI50 was 2.01 µM and the TGI was found to be 4.56 µM.

The molecule `COc1cccc(N2CCc3c(C)c(C#N)c4nc5ccccc5n4c32)c1` had a TGI of over 100 µM.

`CC(=O)C1CC2(c3ccccc3)C(=O)c3ccccc3N2O1` (configuration not stated) showed a TGI of over 100 µM.

Regarding `Cc1nnc2sc(-c3ccc(N)cc3)nn12`, the TGI is over 100 µM.

Molecule `CCOP(=O)(C/C(=N/NC(C)(C)C)C(=O)Nc1nc2ccc(C)cc2s1)OCC` showed a TGI of over 100 µM.

As to `C[C@@H]1O[C@@H]2OCC[C@@H]2C2=C1C(=O)c1ccccc1C2=O`, the TGI came out at 29 µM.

In turn, `O=[N+]([O-])/C(Cl)=C(\Sc1ccccc1)C(Cl)=C(Cl)Cl` returned a TGI of 3.45 µM.

In turn, `NC(N)=NS(=O)(=O)c1ccc(NC(=O)c2ccc(Cl)c3c(Nc4ccc(S(=O)(=O)N=C(N)N)cc4)c4ccccc4nc23)cc1` yielded a TGI of over 100 µM.

Molecule `Cc1c(Cl)c(S(N)(=O)=O)cc(S(N)(=O)=O)c1NC(=O)c1ccc(Cl)cc1` gave a TGI of over 100 µM.

As for `CCN(CCc1ccc(F)cc1)c1ccc(CO)c(Cl)c1`, the GI50 was 12 µM and the TGI was determined as 25.4 µM.

With `COc1cc(CSc2ccc(O)cc2)cc(O)c1O`, the TGI was over 100 µM.

With `COc1cccc(NC(=O)c2c(SC)n[nH]c2N)c1`, the TGI was over 100 µM.

For `CC(=O)OCC1OC(Sc2nc(-c3ccc(C)cc3)c(C#N)c(=O)n2C2OC(COC(C)=O)C(OC(C)=O)C(OC(C)=O)C2OC(C)=O)C(OC(C)=O)C(OC(C)=O)C1OC(C)=O` (configuration not stated), the TGI is over 100 µM.

Molecule `COc1ccc(OC)c2c1C(=O)C(Cl)=C(Cl)C2=O` showed a TGI of 58.9 µM.

Take `S=C(S)NCCCn1ccnc1`: the TGI was over 100 µM.

As for `NC(=O)c1nnc2cc(F)c(F)cc2c1N`, the TGI is over 100 µM.

In the case of `CCCCCCCCOC(=O)c1cc(O)c(O)c(O)c1`, the GI50 was 5.12 µM and the TGI was found to be 30.7 µM.

`CC1=C(CC/C(C)=C/CCC2(C)CCC([C@H](C)C(=O)O)OO2)C(C)(C)CCC1` (some centres not stated) (tested in a mixture with another compound) displayed a TGI of over 100 µM.

With `O=C(/C=C/c1ccccc1)c1ccc(O)c(CN2CCN(c3cc4c(cc3F)c(=O)c(C(=O)O)cn4C3CC3)CC2)c1`, the GI50 is 1.69 µM and the TGI was 31.4 µM.

With `O=S(=O)(O)c1cc(O)c2c(O)c(N=Nc3ccc(/C=C/c4ccc(N=Nc5c(S(=O)(=O)O)cc6cc(S(=O)(=O)O)cc(O)c6c5O)cc4S(=O)(=O)O)c(S(=O)(=O)O)c3)c(S(=O)(=O)O)cc2c1`, the TGI was over 100 µM.

Turning to `CC1(C)[C@@H]2C[C@H]1C(Cc1ccccc1C[C@H]1c3cc(-c4ccccn4)ncc3[C@H]3C[C@@H]1C3(C)C)c1cc(-c3ccccn3)ncc12` (some centres not stated), the TGI came out at 35 µM.

As for `O=C(Cc1ccccc1)NN1C(=O)C(Cl)C1c1cc(Br)cc(Br)c1O` (configuration not stated), the TGI was determined as 46.8 µM.

Molecule `CCCCCCCCCCSS(=O)(=O)c1ccc(C)cc1` gave a TGI of 40.8 µM.

With `COc1ncnc2c1ncn2C/C(Br)=C(\Br)CCl`, the GI50 was 12.4 µM and the TGI is 24.9 µM.

`C/C(CC(=O)Nc1ccc(C)cc1)=N\NC(N)=S` yielded a TGI of over 100 µM.

As for `N#C/C(=C\N1CCNC1=S)C(=O)c1ccc2ccccc2c1`, the TGI is over 100 µM.

`COc1ccc(CCNC(=O)Cc2ccccc2CCO)cc1OC` yielded a TGI of over 100 µM.

Turning to `CCc1nc2cc(/C=C/C(=O)NO)c(F)cc2c(=O)n1CCc1ccccc1`, the GI50 was 0.88 µM and the TGI was 12.1 µM.

Consider `O=C(/C=C/c1ccc(O)c(O)c1)Oc1ccccc1`, for which the TGI was 76.1 µM.

In turn, `c1ccc(N=C2SC(c3ccccc3)CN2C23CC4CC(CC(C4)C2)C3)cc1` (configuration not stated) came in with a TGI of over 100 µM.

For the molecule `CCN(CC)CCNc1ccc(CO)c2sc3ccccc3c(=O)c12`, the GI50 is 3.24 µM and 9.61 µM; the TGI is 23.1 µM [middle of 4 runs].

Consider `CP(=O)(CCSc1ccccc1)c1ccccc1` (configuration not stated), for which the TGI is over 100 µM.

`C[C@H](C(=O)N1C(=O)O[C@@H](c2ccccc2)[C@H]1C)[C@H](c1ccccc1)N(Cc1ccccc1)OC(=O)c1ccccc1` gave a TGI of 41.6 µM.

Molecule `O=C1CC(CC(O)C(O)CO)CC(=O)N1` (configuration not stated) gave a TGI of over 100 µM.

`CC(C)NCCCNC1=C(Cl)C(=O)c2ccccc2C1=O`: the GI50 is 15.9 µM and the TGI was 33.3 µM.

For the molecule `CCCCC/C=C1\CCC(CN2CCOCC2)C1=O` (configuration not stated), the TGI is 37 µM.

For `COC(=O)c1c(C)cccc1C1CN=NC12Cc1c(C)cccc1C2=O` (configuration not stated), the TGI was over 100 µM.

On to `CC(C)(C)c1cc2c(OP(c3ccccc3)c3ccccc3)c(c1)Cc1cc(C(C)(C)C)cc(c1OP(c1ccccc1)c1ccccc1)Cc1cc(C(C)(C)C)cc(c1OP(c1ccccc1)c1ccccc1)Cc1cc(C(C)(C)C)cc(c1OP(c1ccccc1)c1ccccc1)C2`, for which the GI50 is over 50 µM and the TGI is over 50 µM.

In turn, `CN1NC(c2ccccc2)=C(C#N)C(=O)CC1c1ccccc1Cl` (configuration not stated) displayed a TGI of over 100 µM.

In the case of `O=c1c2cc(-c3ccccc3)sc2nc2sc(-c3ccccc3)nn12`, the TGI is over 100 µM.

The molecule `C=C(Cl)C(Br)(CCl)CCC(Cl)C(C)C` (configuration not stated) (tested in a mixture with another compound) returned a TGI of 15.3 µM.

Molecule `COc1ccc(-c2c(N)n(-c3cc(OC)cc(OC)c3)c(=O)c3cc([N+](=O)[O-])ccc23)cc1` gave a TGI of over 100 µM.

Turning to `Cc1cc2cc(Oc3ccnc(Nc4cccc(CS(=O)(=O)NCCN(C)C)c4)n3)ccc2[nH]1`, the GI50 is 12.2 µM and the TGI amounted to 25.2 µM.

`CCCCCCCCCCCCCC/C(=C/OCC[N+](C)(C)C)OC(C)=O` (tested in a mixture with another compound) showed a TGI of 14.2 µM.

The molecule `COc1ccc2c(CCNS(=O)(=O)c3ccccc3)c(C(C)=O)[nH]c2c1[N+](=O)[O-]` registered a TGI of over 100 µM.

Take `C=C(C)[C@@H]1CC[C@]2(c3ncc(C)o3)CC[C@]3(C)[C@H](CC[C@@H]4[C@@](C)(CCC#N)[C@H](C(=C)C)CC[C@]43C)[C@@H]12`: the GI50 was 10.3 µM and the TGI came to 26.3 µM.

Turning to `COc1cc2c(cc1OC)[C@]1(O)C(=O)c3ccc4c(c3O[C@@H]1CO2)C[C@H](C(C)(C)O)O4`, the TGI was over 100 µM.

Take `CCCN(CCC)C(=O)Cc1c2n(c3ccccc13)CCCc1ccccc1-2`: the TGI turned out to be 28.4 µM.

`Cc1ccc(S(=O)(=O)NC(C)C(=O)O)cc1` (configuration not stated) registered a TGI of over 100 µM.

For `COc1ccc(S(=O)(=O)N2CCCCC2)cc1NC(=O)c1[nH]c(C)c2c1CCCCC2=O`, the GI50 is 1.55 µM and the TGI was over 100 µM.

As to `CCOc1ccc2c(-c3ccnc(Nc4cccc(C(F)(F)F)c4)n3)cnn2n1`, the GI50 is over 22 µM and the TGI was over 25 µM.

These data come from PubChem BioAssay (NCI).
